# The other results are listed elsewhere or left out.
# What was measured:
# Test in all cases: glycan array binding signal (z-score within array); higher = stronger binding
# Settings in all cases: glycan notation: IUPAC condensed, linker removed
# [1] = biological target: Fuc(a1-2)Gal
# How it was run: (§1)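 The binding signal is a Z-score computed within each array. Data were drawn from 3228 arrays in the Consortium for Functional Glycomics database, restricted to those with a known protein sequence. Scores were averaged over arrays of the same protein sequence at different concentrations or buffers, and over linkers, and negative values can be taken as non-binding.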
# [2] = biological target: Fuc(a1-2)Gal(b1-3)GalNAc
# How it was run: as §1
# [3] = biological target: Fuc(a1-2)Gal(b1-3)GalNAc(a1-3)[Fuc(a1-2)]Gal(b1-4)Glc
# How it was run: as §1
# [4] = biological target: Fuc(a1-2)Gal(b1-3)GalNAc(a1-3)[Fuc(a1-2)]Gal(b1-4)GlcNAc
# How it was run: as §1
# [5] = biological target: Fuc(a1-2)Gal(b1-3)GalNAc(b1-3)Gal
# How it was run: as §1
# [6] = biological target: Fuc(a1-2)Gal(b1-3)GalNAc(b1-3)Gal(a1-4)Gal(b1-4)Glc
# How it was run: as §1
# [7] = biological target: Fuc(a1-2)Gal(b1-3)GalNAc(b1-4)[Neu5Ac(a2-3)]Gal(b1-4)Glc
# How it was run: as §1
# [8] = biological target: Fuc(a1-2)Gal(b1-3)GlcNAc
# How it was run: as §1
# [9] = biological target: Fuc(a1-2)Gal(b1-3)GlcNAc(b1-2)Man(a1-3)[Fuc(a1-2)Gal(b1-3)GlcNAc(b1-2)Man(a1-6)]Man(b1-4)GlcNAc(b1-4)GlcNAc
# How it was run: as §1
# [10] = biological target: Fuc(a1-2)Gal(b1-3)GlcNAc(b1-2)Man(a1-3)[Fuc(a1-2)Gal(b1-3)GlcNAc(b1-2)Man(a1-6)]Man(b1-4)GlcNAc(b1-4)[Fuc(a1-6)]GlcNAc
# How it was run: as §1
# [11] = biological target: Fuc(a1-2)Gal(b1-3)GlcNAc(b1-3)Gal(b1-4)Glc
# How it was run: as §1
# [12] = biological target: Fuc(a1-2)Gal(b1-3)GlcNAc(b1-3)GalNAc
# How it was run: as §1
# [13] = biological target: Fuc(a1-2)Gal(b1-3)GlcNAc(b1-3)[Fuc(a1-2)Gal(b1-3)GlcNAc(b1-6)]GalNAc
# How it was run: as §1
# [14] = biological target: Fuc(a1-2)Gal(b1-3)GlcNAc(b1-3)[Gal(b1-4)GlcNAc(b1-6)]Gal(b1-4)Glc
# How it was run: as §1
# [15] = biological target: Fuc(a1-2)Gal(b1-3)GlcNAc(b1-3)[Neu5Ac(a2-6)Gal(b1-4)GlcNAc(b1-6)]Gal(b1-4)Glc
# How it was run: as §1
# [16] = biological target: Fuc(a1-2)Gal(b1-3)GlcNAc6S
# How it was run: as §1
# [17] = biological target: Fuc(a1-2)Gal(b1-3)[Fuc(a1-4)]GlcNAc
# How it was run: as §1
# [18] = biological target: Fuc(a1-2)Gal(b1-3)[Fuc(a1-4)]GlcNAc(b1-2)Man(a1-3)[Fuc(a1-2)Gal(b1-3)[Fuc(a1-4)]GlcNAc(b1-2)Man(a1-3)]Man(b1-4)GlcNAc(b1-4)GlcNAc
# How it was run: as §1
# [19] = biological target: Fuc(a1-2)Gal(b1-3)[Fuc(a1-4)]GlcNAc(b1-2)Man(a1-3)[Fuc(a1-2)Gal(b1-3)[Fuc(a1-4)]GlcNAc(b1-2)Man(a1-6)]Man(b1-4)GlcNAc(b1-4)[Fuc(a1-6)]GlcNAc(b1-4)[Fuc(a1-6)]GlcNAc
# How it was run: as §1
# [20] = biological target: Fuc(a1-2)Gal(b1-3)[Fuc(a1-4)]GlcNAc(b1-3)[Fuc(a1-3)[Gal(b1-4)]GlcNAc(b1-6)]Gal(b1-4)Glc
# How it was run: as §1
# [21] = biological target: Fuc(a1-2)Gal(b1-3)[Fuc(a1-4)]GlcNAc(b1-3)[Gal(b1-4)GlcNAc(b1-6)]Gal(b1-4)Glc
# How it was run: as §1
# [22] = biological target: Fuc(a1-2)Gal(b1-4)Fuc(a1-3)]GlcNAc(b1-2)Man(a1-3)[Fuc(a1-2)Gal(b1-4)[Fuc(a1-3)]GlcNAc(b1-2)Man(a1-6)]Man(b1-4)GlcNAc(b1-4)GlcNAc
# How it was run: as §1
# [23] = biological target: Fuc(a1-2)Gal(b1-4)Glc
# How it was run: as §1
# [24] = biological target: Fuc(a1-2)Gal(b1-4)Glc6S
# How it was run: as §1
# [25] = biological target: Fuc(a1-2)Gal(b1-4)GlcNAc
# How it was run: as §1
# [26] = biological target: Fuc(a1-2)Gal(b1-4)GlcNAc(b1-2)Man
# How it was run: as §1
# [27] = biological target: Fuc(a1-2)Gal(b1-4)GlcNAc(b1-2)Man(a1-3)[Fuc(a1-2)Gal(b1-4)GlcNAc(b1-2)Man(a1-6)]Man(b1-4)GlcNAc(b1-4)GlcNAc
# How it was run: as §1
# [28] = biological target: Fuc(a1-2)Gal(b1-4)GlcNAc(b1-2)Man(a1-3)[Fuc(a1-2)Gal(b1-4)GlcNAc(b1-2)Man(a1-6)]Man(b1-4)GlcNAc(b1-4)[Fuc(a1-6)]GlcNAc
# How it was run: as §1
# [29] = biological target: Fuc(a1-2)Gal(b1-4)GlcNAc(b1-2)[Fuc(a1-2)Gal(b1-4)GlcNAc(b1-4)]Man(a1-3)[Fuc(a1-2)Gal(b1-4)GlcNAc(b1-2)Man(a1-6)]Man(b1-4)GlcNAc(b1-4)GlcNAc
# How it was run: as §1
# [30] = biological target: Fuc(a1-2)Gal(b1-4)GlcNAc(b1-3)Gal(b1-4)GlcNAc
# How it was run: as §1
binder,measurement,setting,value
Epa23 (Candida glabrata) (protein) MGSSHHHHHHSSGLVPRGSHMIPNPFEGTINNFPSGCSPNHGLYNRGLTMELYNYSYIHPQSIQSYFNTSTLKKMEKGQCWDPSYLDVNYPRTGYKTHNRFAKVNGIDGILDFEFNPTRSCVPSKGQLPQNYNYPLQFTLSNFTMLLYGYFKPKVTAKHTFTIFADDLLFLNFGAGNAFDCCQQQDTIDDFGNYQAYALWGSDTQQNTLTVNLDANIYYPIRMFYNNRDFKGALNMYFTTDESNTKINDFSGYLFNIPDSSEGCPAHISYETECGNVSG,glycan array binding signal (z-score),[1],-0.243
same,glycan array binding signal (z-score),[2],-0.187
same,glycan array binding signal (z-score),[3],-0.202
same,glycan array binding signal (z-score),[4],-0.246
same,glycan array binding signal (z-score),[5],-0.17
same,glycan array binding signal (z-score),[6],-0.194
same,glycan array binding signal (z-score),[7],-0.222
same,glycan array binding signal (z-score),[8],-0.257
same,glycan array binding signal (z-score),[9],-0.224
same,glycan array binding signal (z-score),[10],-0.222
same,glycan array binding signal (z-score),[11],-0.232
same,glycan array binding signal (z-score),[12],-0.236
same,glycan array binding signal (z-score),[13],-0.245
same,glycan array binding signal (z-score),[14],-0.156
same,glycan array binding signal (z-score),[15],-0.286
same,glycan array binding signal (z-score),[16],-0.221
same,glycan array binding signal (z-score),[17],-0.18
same,glycan array binding signal (z-score),[18],-0.226
same,glycan array binding signal (z-score),[19],-0.257
same,glycan array binding signal (z-score),[20],-1.05
same,glycan array binding signal (z-score),[21],-0.129
same,glycan array binding signal (z-score),[22],-0.116
same,glycan array binding signal (z-score),[23],-0.201
same,glycan array binding signal (z-score),[24],-0.197
same,glycan array binding signal (z-score),[25],-0.214
same,glycan array binding signal (z-score),[26],-0.282
same,glycan array binding signal (z-score),[27],-0.246
same,glycan array binding signal (z-score),[28],-0.157
same,glycan array binding signal (z-score),[29],-0.287
same,glycan array binding signal (z-score),[30],-0.239

# Reference: the supplement of paper PMC8728848
